Experimental data: patent US20180057551A1 (AMYLONIX, published 2018)

Target: T1, human Aβ1-40 peptide (human, biotin at the C-terminus (flow cytometry, Examples 2-4) or at the N-terminus (SPR, ELISA); unlabeled plus Alexa488/Alexa647-labeled in FCS)
T1 construct: synthetic peptide (AnaSpec); one entry for all labelled forms, label named under assay; also called hAβ1-40; Aβ40
Test: flow cytometry, on-cell off-rate ranking on S. carnosus: 25 nM biotinylated Aβ1-40, 100 nM unlabeled Aβ1-40 for 6 h; MFI of Aβ binding (FL-2) / MFI of surface expression (FL-6)

Binder	binding result
ABPP001 displayed on S. carnosus, fused to ABP (designed binder, pSCZ1 surface display) AGGEIVYFPNLNADQLCAFIRSLEDDPSQSANLLAEAKKLNDAQAPASSSSGSSSSGRASAGRERVYLPNLNADQLCAFIQSLEDDPSQQANLLAEAKKLNDAQAPKKLLDALAKAKADALKEFNKYGVSDYYKNLINNAKTVEGVKDLQAQVVESAKKARISEATDGLSDFLKSQTPAEDTVKSIELAEAKVLANRELDKYGVSDYHKNLINNAKTVEGVKDLQAQVVESAKKARISEATDGLSDFLKSQTPAEDTVKSIELAEAKVLANRELDKYGVSDYYKNLINNAKTVEGVKALIDEILAALP	binds
ABPP005 displayed on S. carnosus, fused to ABP (designed binder, pSCZ1 surface display) AGGERVYLPNLNADQLCAFIRSLEDDPSQSANLLAEAKKLNDAQAPASSSSGSSSSGRASAGRERVYLPNLNAHQLCAFINSIEDDPSQSANLLAEAKKLNDAQAPKKLLDALAKAKADALKEFNKYGVSDYYKNLINNAKTVEGVKDLQAQVVESAKKARISEATDGLSDFLKSQTPAEDTVKSIELAEAKVLANRELDKYGVSDYHKNLINNAKTVEGVKDLQAQVVESAKKARISEATDGLSDFLKSQTPAEDTVKSIELAEAKVLANRELDKYGVSDYYKNLINNAKTVEGVKALIDEILAALP	binds
ABPP013 displayed on S. carnosus, fused to ABP (designed binder, pSCZ1 surface display) AGGEIVYFPNLNADQLCAFIRSLEDDPSQQANLLAEAKKLNDAQAPASSSSGSSSSGRASAGRERVYLPNLNADQLCAFIRSLEDDRSQQANLLAEAKKLNDAQAPKKLLDALAKAKADALKEFNKYGVSDYYKNLINNAKTVEGVKDLQAQVVESAKKARISEATDGLSDFLKSQTPAEDTVKSIELAEAKVLANRELDKYGVSDYHKNLINNAKTVEGVKDLQAQVVESAKKARISEATDGLSDFLKSQTPAEDTVKSIELAEAKVLANRELDKYGVSDYYKNLINNAKTVEGVKALIDEILAALP	binds
ABPP014 displayed on S. carnosus, fused to ABP (designed binder, pSCZ1 surface display) AGGEIVYLPNLNAHQLCAFIQSLEDDPSQQANLLAEAKKLNDAQAPASSSSGSSSSGRASAGRERVYLPNLNADQLCAFINSLEDDPSQSANLLAEAKKLNDAQAPKKLLDALAKAKADALKEFNKYGVSDYYKNLINNAKTVEGVKDLQAQVVESAKKARISEATDGLSDFLKSQTPAEDTVKSIELAEAKVLANRELDKYGVSDYHKNLINNAKTVEGVKDLQAQVVESAKKARISEATDGLSDFLKSQTPAEDTVKSIELAEAKVLANRELDKYGVSDYYKNLINNAKTVEGVKALIDEILAALP	binds
ABPP016 displayed on S. carnosus, fused to ABP (designed binder, pSCZ1 surface display) AGGEIHYFPNLNAHQLCAFIRSLEDDPSQQANLLAEAKKLNDAQAPASSSSGSSSSGRASAGRERVYLPNLNADQLCAFIRSLEDDPSQQANLLAEAKKLNDAQAPKKLLDALAKAKADALKEFNKYGVSDYYKNLINNAKTVEGVKDLQAQVVESAKKARISEATDGLSDFLKSQTPAEDTVKSIELAEAKVLANRELDKYGVSDYHKNLINNAKTVEGVKDLQAQVVESAKKARISEATDGLSDFLKSQTPAEDTVKSIELAEAKVLANRELDKYGVSDYYKNLINNAKTVEGVKALIDEILAALP	binds
ABPP020 displayed on S. carnosus, fused to ABP (designed binder, pSCZ1 surface display) AGGEIVYFPNLNAHQLCAFIRSLEDDPSQSANLLAEAKKLNDAQAPASSSSGSSSSGRASAGRERVYLPNLNAHQLCAFIQSIEDDPSQSANLLAEAKKLNDAQAPKKLLDALAKAKADALKEFNKYGVSDYYKNLINNAKTVEGVKDLQAQVVESAKKARISEATDGLSDFLKSQTPAEDTVKSIELAEAKVLANRELDKYGVSDYHKNLINNAKTVEGVKDLQAQVVESAKKARISEATDGLSDFLKSQTPAEDTVKSIELAEAKVLANRELDKYGVSDYYKNLINNAKTVEGVKALIDEILAALP	binds
ABPP021 displayed on S. carnosus, fused to ABP (designed binder, pSCZ1 surface display) AGGEIVYFPNLNAHQLCAFIRSLEDDPSQSANLLAEAKKLNDAQAPASSSSGSSSSGRASAGRERVYLPNLNADQLCAFIQSLEDDPSQSANLLAEAKKLNDAQAPKKLLDALAKAKADALKEFNKYGVSDYYKNLINNAKTVEGVKDLQAQVVESAKKARISEATDGLSDFLKSQTPAEDTVKSIELAEAKVLANRELDKYGVSDYHKNLINNAKTVEGVKDLQAQVVESAKKARISEATDGLSDFLKSQTPAEDTVKSIELAEAKVLANRELDKYGVSDYYKNLINNAKTVEGVKALIDEILAALP	binds
ABPP025 displayed on S. carnosus, fused to ABP (designed binder, pSCZ1 surface display) AGGERVYLPNLNAHQLCAFIRSLEDDPSQSANLLAEAKKLNDAQAPASSSSGSSSSGRASAGRERVYLPNLNADQLCAFIRSLEDDPSQSANLLAEAKKLNDAQAPKKLLDALAKAKADALKEFNKYGVSDYYKNLINNAKTVEGVKDLQAQVVESAKKARISEATDGLSDFLKSQTPAEDTVKSIELAEAKVLANRELDKYGVSDYHKNLINNAKTVEGVKDLQAQVVESAKKARISEATDGLSDFLKSQTPAEDTVKSIELAEAKVLANRELDKYGVSDYYKNLINNAKTVEGVKALIDEILAALP	binds
ABPP026 displayed on S. carnosus, fused to ABP (designed binder, pSCZ1 surface display) AGGEIVYFPNLNAHQLCAFIRSLEDDPSQSANLLAEAKKLNDAQAPASSSSGSSSSGRASAGRERVYLPNLNADQLCAFINSLEDDPSQQANLLAEAKKLNDAQAPKKLLDALAKAKADALKEFNKYGVSDYYKNLINNAKTVEGVKDLQAQVVESAKKARISEATDGLSDFLKSQTPAEDTVKSIELAEAKVLANRELDKYGVSDYHKNLINNAKTVEGVKDLQAQVVESAKKARISEATDGLSDFLKSQTPAEDTVKSIELAEAKVLANRELDKYGVSDYYKNLINNAKTVEGVKALIDEILAALP	binds
ABPP028 displayed on S. carnosus, fused to ABP (designed binder, pSCZ1 surface display) AGGEIVYLPNLNAHQLCAFIQSLEDDPSQQANLLAEAKKLNDAQAPASSSSGSSSSGRASAGRERVYLPNLNAHQLCAFIQSLEDDPSQSANLLAEAKKLNDAQAPKKLLDALAKAKADALKEFNKYGVSDYYKNLINNAKTVEGVKDLQAQVVESAKKARISEATDGLSDFLKSQTPAEDTVKSIELAEAKVLANRELDKYGVSDYHKNLINNAKTVEGVKDLQAQVVESAKKARISEATDGLSDFLKSQTPAEDTVKSIELAEAKVLANRELDKYGVSDYYKNLINNAKTVEGVKALIDEILAALP	binds
ABPP033 displayed on S. carnosus, fused to ABP (designed binder, pSCZ1 surface display) AGGEIVYFPNLNADQLCAFIQSLEDDPSQQANLLAEAKKLNDAQAPASSSSGSSSSGRASAGRERVYLPNLNADQLCAFIRSLEDDPSQQANLLAEAKKLNDAQAPKKLLDALAKAKADALKEFNKYGVSDYYKNLINNAKTVEGVKDLQAQVVESAKKARISEATDGLSDFLKSQTPAEDTVKSIELAEAKVLANRELDKYGVSDYHKNLINNAKTVEGVKDLQAQVVESAKKARISEATDGLSDFLKSQTPAEDTVKSIELAEAKVLANRELDKYGVSDYYKNLINNAKTVEGVKALIDEILAALP	binds
ABPP035 displayed on S. carnosus, fused to ABP (designed binder, pSCZ1 surface display) AGGEIVYFPNLNAHQLCAFIRSLEDDPSQQANLLAEAKKLNDAQAPASSSSGSSSSGRASAGRERVYLPNLNADQLCAFINSIEDDPSQSANLLAEAKKLNDAQAPKKLLDALAKAKADALKEFNKYGVSDYYKNLINNAKTVEGVKDLQAQVVESAKKARISEATDGLSDFLKSQTPAEDTVKSIELAEAKVLANRELDKYGVSDYHKNLINNAKTVEGVKDLQAQVVESAKKARISEATDGLSDFLKSQTPAEDTVKSIELAEAKVLANRELDKYGVSDYYKNLINNAKTVEGVKALIDEILAALP	binds
ABPP040 displayed on S. carnosus, fused to ABP (designed binder, pSCZ1 surface display) AGGEIVYFPNLNADQLCAFIRSLEDDPSQQANLLAEAKKLNDAQAPASSSSGSSSSGRASAGRERVYLPNLNADQLCAFIRSLEDDPSQQANLLAEAKKLNDAQAPKKLLDALAKAKADALKEFNKYGVSDYYKNLINNAKTVEGVKDLQAQVVESAKKARISEATDGLSDFLKSQTPAEDTVKSIELAEAKVLANRELDKYGVSDYHKNLINNAKTVEGVKDLQAQVVESAKKARISEATDGLSDFLKSQTPAEDTVKSIELAEAKVLANRELDKYGVSDYYKNLINNAKTVEGVKALIDEILAALP	binds
ABPP042 displayed on S. carnosus, fused to ABP (designed binder, pSCZ1 surface display) AGGERVYLPNLNADQLCAFIRSLEDDPSQSANLLAEAKKLNDAQAPASSSSGSSSSGRASAGRERVYLPNLNADQLCAFIRSLEDDPSQQANLLAEAKKLNDAQAPKKLLDALAKAKADALKEFNKYGVSDYYKNLINNAKTVEGVKDLQAQVVESAKKARISEATDGLSDFLKSQTPAEDTVKSIELAEAKVLANRELDKYGVSDYHKNLINNAKTVEGVKDLQAQVVESAKKARISEATDGLSDFLKSQTPAEDTVKSIELAEAKVLANRELDKYGVSDYYKNLINNAKTVEGVKALIDEILAALP	binds
ABPP048 displayed on S. carnosus, fused to ABP (designed binder, pSCZ1 surface display) AGGEIVYFPNLNADQLCAFIQSLEDDPSQSANLLAEAKKLNDAQAPASSSSGSSSSGRASAGRERVYLPNLNADQLCAFIRSLEDDPSQQANLLAEAKKLNDAQAPKKLLDALAKAKADALKEFNKYGVSDYYKNLINNAKTVEGVKDLQAQVVESAKKARISEATDGLSDFLKSQTPAEDTVKSIELAEAKVLANRELDKYGVSDYHKNLINNAKTVEGVKDLQAQVVESAKKARISEATDGLSDFLKSQTPAEDTVKSIELAEAKVLANRELDKYGVSDYYKNLINNAKTVEGVKALIDEILAALP	binds
ABPP049 displayed on S. carnosus, fused to ABP (designed binder, pSCZ1 surface display) AGGERVYFTNLNADQLCAFIQSLEDDPSQSANLLAEAKKLNDAQAPASSSSGSSSSGRASAGRERVYLPNLNAHQLCAFIRSLEDDPSQQANLLAEAKKLNDAQAPKKLLDALAKAKADALKEFNKYGVSDYYKNLINNAKTVEGVKDLQAQVVESAKKARISEATDGLSDFLKSQTPAEDTVKSIELAEAKVLANRELDKYGVSDYHKNLINNAKTVEGVKDLQAQVVESAKKARISEATDGLSDFLKSQTPAEDTVKSIELAEAKVLANRELDKYGVSDYYKNLINNAKTVEGVKALIDEILAALP	binds
ABPP050 displayed on S. carnosus, fused to ABP (designed binder, pSCZ1 surface display) AGGEIVYLPNLNADQLCAFIQSLEDDPSQSANLLAEAKKLNDAQAPASSSSGSSSSGRASAGRERVYLPNLNAHQLCAFIQSLEDDPSQQANLLAEAKKLNDAQAPKKLLDALAKAKADALKEFNKYGVSDYYKNLINNAKTVEGVKDLQAQVVESAKKARISEATDGLSDFLKSQTPAEDTVKSIELAEAKVLANRELDKYGVSDYHKNLINNAKTVEGVKDLQAQVVESAKKARISEATDGLSDFLKSQTPAEDTVKSIELAEAKVLANRELDKYGVSDYYKNLINNAKTVEGVKALIDEILAALP	binds
